Source: PubChem BioAssay AID1240 (Sanford-Burnham Center for Chemical Genomics, 2008)
About 800 (1.6%) of roughly 50,000 compounds showed an effect of 50% or more. The list shows a part of the results.

Target: Bcl-2-like protein 10 (Homo sapiens) (UniProt Q9HD36)
Assay: TR3 peptide-Bcl-B binding displacers, biochemical primary FP assay, phenotype converters (AID 1240);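 further: 0% = Bcl-B with tracer peptide and DMSO and 100% = tracer peptide lacking Bcl-B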
Conditions: GST-Bcl-B / FITC-TR3 peptide fluorescence polarization; stronger effect = higher value; compound at 3.75 mg/L

Sequence of UniProt Q9HD36 (Q9HD36 whole entry, looked up): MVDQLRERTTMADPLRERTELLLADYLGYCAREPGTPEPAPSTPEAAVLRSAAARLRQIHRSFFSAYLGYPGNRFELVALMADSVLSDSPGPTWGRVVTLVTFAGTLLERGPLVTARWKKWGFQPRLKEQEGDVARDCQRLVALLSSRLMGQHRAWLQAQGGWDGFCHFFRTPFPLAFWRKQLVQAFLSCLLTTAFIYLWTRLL

SMILES	displacement [%]
CCOC(=O)c1c(-c2ccc(Cl)cc2)csc1NC(=O)C1CC=CCC1C(=O)O (stereo not given)	0.7
COC(=O)c1ccc(NC(NC(=O)c2ccc(OC)c(OC)c2)C(Cl)(Cl)Cl)cc1 (stereo not given)	-2
CCOC(=O)CC1(c2ccccc2)SC(NC(C)=O)=NN1C(C)=O (stereo not given)	-3.4
COc1ccc(Oc2coc3cc(OC(=O)c4ccccc4Cl)ccc3c2=O)cc1	7.4
COc1ccc(C2/C(=C(/O)c3ccccc3)C(=O)C(=O)N2Cc2ccccc2)cc1 (stereo not given)	-16.2
CC1(C)C2=C([N+](=O)[O-])CN(c3ccccc3)CN2C(C)(C)N1[O]	3.9
O=C1Nc2ccc(Br)c3cccc1c23	15.9
N/C(=N\OC(=O)c1ccc(Br)cc1)c1ccccc1	-5.4
Cc1cccc(C=Nc2cc(Cl)ccc2O)c1O	6.8
Cc1nccn1S(=O)(=O)c1ccc(Cl)c([N+](=O)[O-])c1	2.1
CC(=O)C1=C(O)C(=O)N(CCN2CCNCC2)C1c1ccc(F)cc1 (stereo not given)	-26.2
Cc1ccc(C(=O)N2C(C)CCCC2C)cc1[N+](=O)[O-] (stereo not given)	-4
O=C(NCc1ccccn1)c1cccc2ccccc12	-1.2
COc1ccc(CC(=O)NN2C(=O)c3ccccc3C2=O)cc1	12.4
COC(=O)C(NC(=O)c1ccccc1)c1ccccc1 (stereo not given)	3.9
COc1ccc(/C=C2\SC(=S)N(CCCC(=O)NC34CC5CC(CC(C5)C3)C4)C2=O)cc1	4.2
COc1ccc(NC(=O)c2cc(Cl)ccc2OC)c([N+](=O)[O-])c1	-3.1
Cc1nc(=O)c(-c2ccccc2)c(C)n1CCO	-5.9
Brc1ccc(/C=N/Nc2cc(N3CCOCC3)nc(N3CCOCC3)n2)cc1	4.5
CCC(C(=O)Nc1ccc2c(c1)OCCO2)c1ccccc1 (stereo not given)	2.3
Cn1c(/N=C(\N)c2ccc([N+](=O)[O-])cc2)nc2ccccc21	-19.4
Cc1ccc(C)c(OCCCCN2CCCCC2)c1C	12.5
COc1ccc(C(=O)NN=C2CCN(Cc3ccccc3)CC2)cc1OC	7.2
O=C(N/N=C/c1ccc(/C=N/NC(=O)c2ccc(Br)cc2)cc1)c1ccc(Br)cc1	-13.5
Cc1cccc(C)c1NC(=O)CSc1nnc(NC(=O)CN2CCOCC2)s1	-1
COc1cc(NC(C)=O)c(OC)cc1N=NC1=C(O)CC(C)(C)CC1=O	-2.3
CCOC(=O)/C(C(C)=O)=C(\C=C\N(C)C)N(C)C	-5

SMILES	displacement [%]
N#Cc1cc2[nH]c3ccccc3c2n(-c2ccc([N+](=O)[O-])cc2)c1=O	-12.2
O=C(CCCC(=O)OCC(F)(F)C(F)F)Nc1cccc(F)c1	-0.4
Nc1nonc1-n1nnc(C(=O)N/N=C/c2ccc(O)cc2)c1-c1ccccc1	-12.2
O=C(COc1ccc(Cl)cc1Br)N/N=C/c1cc(Cl)cc([N+](=O)[O-])c1O	35.7
O=C(CC(C(=O)O)N1CCOCC1)c1ccccc1 (stereo not given)	-6.5
CCOc1cc(C=C2C(=O)c3ccccc3C2=O)ccc1OCc1ccc(Cl)cc1Cl	2.3
O=C(CCCN1C(=O)c2cccc3cccc(c23)C1=O)NCc1cccnc1	6.9
NNC(=O)COc1cccc2ccccc12	3.2
O=C(c1ccc(N2CCN(C(=O)c3c(F)cccc3F)CC2)cc1)c1cccc(F)c1	-6.6
OCC(O)COC(c1ccccc1)(c1ccccc1)c1ccccc1 (stereo not given)	7.5
C#Cc1cccc(NC(=O)c2cc(C(=O)Nc3cccc(C#C)c3)cc(N3C(=O)c4ccccc4C3=O)c2)c1	-1.8
CC1(C)OC2OC(COC(=O)c3ccccc3Cl)C3OC(C)(C)OC3C2O1 (stereo not given)	9.1
CCc1nnc(NS(=O)(=O)c2ccc(N/C=C/C(=O)c3ccc(OC)cc3OC)cc2)s1	12
COc1cc(C=C2C(=O)NC(=O)NC2=O)cc(Br)c1OCc1ccccc1	5.1
COc1cc(/C=C2/SC(=S)N(CC(=O)Nc3ccccn3)C2=O)cc(OC)c1OC	15.6
O=C(/C=C/c1ccc(F)cc1)Nc1cccc2ncccc12	20.5
COc1cc(C2Nc3ccccc3C(=O)N2Cc2ccccc2)ccc1O (stereo not given)	-0.6
O=C(Nc1ccc2ccccc2c1)c1cccc(NC(=O)c2cccs2)c1	4.4
Cc1ccc(NC(=O)CC2CS(=O)(=O)CC2CC(=O)Nc2ccc(C)c(C)c2)cc1C (stereo not given)	-13
COc1ccc(-n2nc3cc(C)c(NC(=O)c4cc5ccccc5o4)cc3n2)cc1	2.4
COc1ccc(C2CC(=O)C3=C(C2)Nc2ccccc2NC3c2ccc(OCc3ccccc3)cc2)cc1 (stereo not given)	-4.9
O=C(CSc1nnnn1-c1ccccc1)Nc1nccs1	8.2
CCOC(=O)c1c(-c2ccc(F)cc2)csc1NC(=O)C1CC=CCC1C(=O)O (stereo not given)	-2.7
COc1ccc(CCNC(=O)/C=C/c2ccc(Cl)cc2Cl)cc1OC	5.2
COc1ccc(C2CC(C(F)(F)F)n3ncc(C(=O)Nc4c(C)n(C)n(-c5ccccc5)c4=O)c3N2)cc1 (stereo not given)	-4.1
CCCCNC(=O)/C(=C/c1ccc(Cl)cc1)NC(=O)c1ccc(OC)cc1	6.4
COCCOC(=O)c1c(C)oc2ccc(NS(=O)(=O)c3cc(Cl)ccc3Cl)cc12	10

SMILES	displacement [%]
Cc1ccc(C(=O)Nc2ccccc2C(=O)N2CCC(Cc3ccccc3)CC2)cc1	-0.9
O=C(Nc1cc(C(F)(F)F)ccc1Cl)c1ccccc1I	6.3
O=C(Nc1nnc(COc2ccc(F)cc2)s1)c1ccc(F)cc1	-14.8
COc1ccc(NS(=O)(=O)c2ccccc2)cc1OC	-9.2
O=C(O)CCCCCN1C(=O)C(O)=C(C(=O)/C=C/c2ccccc2)C1c1cccc([N+](=O)[O-])c1 (stereo not given)	96.1
O=C1N/C(=N/N=C/c2ccc(O)cc2)SC1Cc1ccc(Cl)cc1 (stereo not given)	-7.7
CC1=C(C(=O)Nc2ccc(Br)cc2)C(c2ccccc2Br)NC(=S)N1 (stereo not given)	-7
Cc1ccc(S(=O)(=O)CCC(=O)c2ccc(O)cc2O)cc1	3.1
COC(=O)C1=C(C(=O)OC)SC(=C2C(=S)C(C)(C)N(C(=O)c3cccc(F)c3)c3c(C)cccc32)S1	-6.7
CCc1ccc2c(c1)C(O)(CC(=O)c1ccc(Cl)cc1)C(=O)N2 (stereo not given)	-9.9
COc1ccc(CC(=O)Nc2sc3c(c2C(=O)Nc2ccccc2Cl)CCCC3)cc1	-9.7
COc1ccc(-n2nc3cc(C)c(NC(=O)COc4ccc(Br)cc4)cc3n2)cc1	4.5
O=C(/C=C/c1c(Cl)cccc1Cl)c1ccc2c(c1)OCCO2	18.2
CC(C)c1ccc(NC(=O)CN(Cc2ccccc2)S(=O)(=O)c2ccccc2)cc1	3
O=C(Nc1ccccc1C(=O)O)c1ccc2c(c1)C(=O)N(c1ccc(O)cc1)C2=O	15.5
Cc1ccc(-n2nc(-c3ccccc3)c3c2C(=O)C=CC3=O)cc1	12.4
O=[N+]([O-])c1ccccc1S(=O)(=O)NC12CC3CC(CC(C3)C1)C2	-0.7
O=c1/c(=C/c2cc(Br)ccc2O)sc2nc3ccccc3n12	10.3
FC(F)(F)c1ccc2nnc(-c3cccc(Cl)c3Cl)n2c1	-11
CC(Oc1cccc(Cl)c1)C(=O)Nc1nncs1 (stereo not given)	4.1
CCOC(=O)c1ccc(N2C(=O)CSC23C(=O)Nc2ccccc23)cc1 (stereo not given)	10.6
CC(C)(CO)NC(=O)NC12CC3CC(CC(C3)C1)C2	-4.9
Cc1ccc(-c2[nH]ncc2/C=N/NC(=O)c2ccc(Br)cc2)cc1	4.6
CCCC(=O)n1nc(C)c2c1CC(C)(C)CC2=O	3.7
O=c1cc(-c2c(F)c(F)c(F)c(F)c2F)oc2c(F)c(F)c(F)c(F)c12	-8.7
COc1ccc(C(=O)CC(Nc2ccc(C)c(Cl)c2)c2ccccc2)cc1 (stereo not given)	-14.9
COc1ccc(S(=O)(=O)N(CC(=O)Nc2ccc3c(c2)OCO3)c2ccc(C)cc2)cc1OC	4.9

SMILES	displacement [%]
O=C1NC(=O)N(c2ccc(Cl)cc2)C(=O)/C1=C/c1ccc(Br)s1	-6.7
Cc1ccc(C(=O)Oc2cccc(C3C4=C(CC(C)(C)CC4=O)NC4=C3C(=O)c3ccccc34)c2)cc1 (stereo not given)	5.6
COc1ccc(NC(=O)C(=O)NCCc2ccc(OC)c(OC)c2)cc1Cl	8.9
COc1ccc(C2CC(=O)C3=C(C2)Nc2ccccc2NC3c2ccc(OC)c(Br)c2)cc1 (stereo not given)	-3.9
COc1ccc(Nc2cc(C)nc3c(C)ccc([N+](=O)[O-])c23)cc1	3
CCC(C)NC(=O)COc1ccc2ccccc2c1 (stereo not given)	17.7
O=C(CN(c1cccc(Br)c1)S(=O)(=O)c1ccccc1)N1CCCC1	3.5
O=C(O)c1ccc(NC(=O)c2ccc3c(c2)C(=O)N(c2ccc(C(=O)O)cc2)C3=O)cc1	0.7
CCOc1ccc(NC(=S)NC(=O)c2ccc(OC)cc2)c([N+](=O)[O-])c1	8
COc1ccc(NC(=O)c2ccc(S(=O)(=O)N3CCOCC3)cc2)c2ccccc12	-8.9
CCOC(=O)Cc1nn(CC)c(=O)c2ccccc12	-0.4
CCOc1ccc(C(=O)Nc2cc(-c3nc4ccccc4[nH]3)ccc2C)cc1[N+](=O)[O-]	11.8
CSc1nnc2n(-c3ccc(C)cc3)c(=O)c3c4c(sc3n12)CCCC4	49.7
C(=C\c1ccccc1)/C=N/Nc1nnc2c(n1)[nH]c1ccccc12	1.2
CCOC(=O)C1CCN(C(=O)c2ccc(C#CC(C)(C)O)cc2)CC1	-1
COc1ccccc1/C=C/c1nc(O)c([N+](=O)[O-])c(=O)[nH]1	4.5
O=C(CC(=O)NCc1ccccn1)NCc1ccccn1	-24.6
Cc1oc2ccc(OC(=O)c3cccs3)cc2c1C(=O)OC(C)C	9.9
CC(=C/c1ccccc1)/C=N/NC(=O)c1ccccn1	-1.4
CCOC(=O)NCc1ccc(N(C)C)cc1	8
O=C(Nc1cc([N+](=O)[O-])ccc1F)c1cccs1	6.5
COc1ccc(OC)c(NC(=O)C2COc3ccccc3O2)c1 (stereo not given)	19.7
O=c1[nH]c(/C=C/c2ccccc2[N+](=O)[O-])nc2ccccc12	1.4
O=C(NC(=S)Nc1ccc(Cc2ccncc2)cc1)c1ccccc1	9.1
